Reference: PubChem BioAssay (NCATS)
The shares of active, inactive and inconclusive entries below differ from those in the screen. A potency beside an inconclusive call is a rough fit, not a confirmed value. Active and inactive are the calls of the source. Calls follow the shape of the dose curve; as a rule, active = well fitted inhibition curve with a large enough effect; inconclusive = small, poorly fitted or top-dose-only effect; inactive = no such curve, though single readings can be large or run the other way.

Target: Retinaldehyde dehydrogenase 3 (Homo sapiens) (UniProt P47895)
Experiment: qHTS for Inhibitors of the Aldehyde Dehydrogenase Family (ALDH1A3) Primary screen (AID 2061315)
Conditions: ALDH inhibition qHTS; series mostly up to 56 µM
Potency is read from the fitted curve at half-maximal effect; tags tell the direction and shape of the fitted curve.

| Structure (SMILES) | Potency |
| --- | --- |
| COc1cc(N2C(=O)c3ccccc3C2=O)c2ncccc2c1 | inconclusive: 0.794 µM [inhibitor, full curve] |
| O=C(C1CCN(c2nc(-c3ccc(Br)cc3)cs2)CC1)N1CCOCC1 | inactive |
| Oc1ccc(CC2NCCc3cc(O)c(O)cc32)cc1 (configuration not stated) | inconclusive: 3.16 µM [inhibitor, full curve] |
| O=C(O)c1cc(O[C@@H]2O[C@H](CO[C@@H]3OC[C@@H](O)[C@H](O)[C@H]3O)[C@@H](O)[C@H](O)[C@H]2O)c2ccccc2c1O | active: 2.82 µM |
| CN(C)c1cccc(Oc2cnc(Nc3cccc(O)c3)nc2)c1 | inconclusive: 39.8 µM [inhibitor, single point] |
| COc1ccc(NC(=O)c2ccc(-c3ccc(C(=N)N)cc3C)cc2)cc1N1CCN(C)CC1 | inconclusive: 20 µM [inhibitor, single point] |
| COc1cccc(-c2ccc(NC(=O)C3=C(C(=O)O)CCC3)c(F)c2)c1 | inconclusive: 7.08 µM [inhibitor, partial curve] |
| CSc1cc2c(s1)c1cnn(Cc3cccc(N)c3)c(=O)c1n2C | inconclusive: 3.55 µM [inhibitor, full curve, poor fit] |
| COc1ccccc1Nc1cc2ccccc2c(=O)[nH]1 | inconclusive: 1.58 µM [inhibitor, full curve] |
| Cc1ccnc(NC(=S)N2CCN(C)CC2)c1 | inconclusive: 4.47 µM [inhibitor, full curve] |
| CCCN(CCN1CCN(c2ccccc2OC)CC1)C1CCc2ncsc2C1 (configuration not stated) | inconclusive: 11.2 µM [inhibitor, partial curve] |
| C=C(C)C(=O)O[C@H]1[C@H]2C(=C)C(=O)O[C@@H]2/C=C(\CO)CC/C=C(/C=O)[C@@H]1O | inconclusive: 7.94 µM [inhibitor, partial curve] |
